Assay results: a collection of fitness landscapes (doi:10.1016/j.celrep.2020.107928)
Over roughly 81,000 sequences, “one-hybrid fitness for binding NBS DNA” has its median near -0.1; the highest 2% begin near 0.36. The list shows a part of the results.

B1: Caulobacter ParB omega fusion; a variant is named by its letters at X, in order, B8GW30 (parent)
chain: MESVVVGEPGMSEGRRGLGRGLSALLGEVDAAPAQAPGEQLGGSREAPIEILQRNPDQPRRTFREEDLEDLSNSIREKGVLQPILVRPSPDTAGEYQIVAGERAWRAAQRAGLKTVPIMVRELDDLAVLEIGIIENVQRADLNVLEEALSYKVLMEKFERTQENIAQTIGKSXSHVANXMRLLXLPDEVQSYLVSGELTAXHARAIAAAADPVALAKQIIEGGLSVRETEALARKAPNLSAGKSKGGRPPRVKDTDTQALESDLSSVLGLDVSIDHRGSTGTLTITYATLEQLDDLCNRLTRGI

Variants of: B1
Assay: one-hybrid fitness for binding NBS DNA (the Noc-binding site; scaled: cognate 1, non-cognate 0); higher = stronger binding
Conditions: with NBS DNA site
In short: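 On M9-minus-histidine containing 0.1 mM IPTG and 5 mM 3-AT, E. coli USO cells with a HIS3 reporter, site 19 bp from the promoter, grew 48 hours at 37°C to select Caulobacter ParB libraries randomised at four specificity codons. Plasmids from before and after were Illumina-sequenced, with three replicate libraries pooled and variants under 10 reads left out. Fitness is the log change in variant-to-wild-type read ratio, rescaled against cognate and non-cognate.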

one-hybrid fitness for binding NBS DNA, 0.469:
KRFR

one-hybrid fitness for binding NBS DNA, ≤ 0.2:
SLCF
YHVV
IALT
LNIN
APMD
SVAL
SGSP
QFET
YTIT
RNWG
TKGT
VDRY
QDLQ
MRAY
RCAE
PAVY
DSRK
VNDP
SCGL
QREK
WYSI
WSYY
WTHC
HDRC
NLNF
CGTA
FDTS
RYQF
RRNL
PGRN
CELN
AMMM
PDQY
RKFK
PAPC
RASE
RVNK
HTDR
GGHR
QANI
NLKC
IQQN
QKPA
RWVW
TCMT
PCNT
VEFG
PSSN
WYFT
WDVL
HRKY
SSPD
KAHQ
PFPY
YYKS
WSQV
DIEN
IKTS
TLQY
SYPG
SHLT
ECWS
FADC
YVIY
LADA
ICSV
SDEV
MYTS
ERPN
PSEY
YACA
SPFK
SCSQ
DPMG
RTWQ
AALG
RHIC
FPPR
QIGF
YKER
LSQF
HTYT
QEDW
AVAC
DLAM
LFNS
YLAC
ATVL
LWAS
CRRG
NDEG

one-hybrid fitness for binding NBS DNA, 0.237:
RKRV

one-hybrid fitness for binding NBS DNA, 0.412:
QRTV

one-hybrid fitness for binding NBS DNA, 0.385:
QHGT

one-hybrid fitness for binding NBS DNA, 0.348:
RMWT

one-hybrid fitness for binding NBS DNA, 0.33:
KAKR

one-hybrid fitness for binding NBS DNA, 0.21:
QINA
